In all, about 310,000 compounds went through this assay and about 2,200 (0.71%) showed an effect of 50% or more. The effect is printed as a negative number. The list shows a part of the results.

The results in this text go back to publication PMC4336329 (PLoS ONE, 2015).

The target in this assay is human ether-à-go-go-related gene (hERG) potassium channel (human, UniProt Q12809). The experiment in a line: primary screen, population patch clamp on CHO cells stably expressing hERG.
human ether-à-go-go-related gene (hERG) potassium channel, sequence (Q12809 whole entry, looked up): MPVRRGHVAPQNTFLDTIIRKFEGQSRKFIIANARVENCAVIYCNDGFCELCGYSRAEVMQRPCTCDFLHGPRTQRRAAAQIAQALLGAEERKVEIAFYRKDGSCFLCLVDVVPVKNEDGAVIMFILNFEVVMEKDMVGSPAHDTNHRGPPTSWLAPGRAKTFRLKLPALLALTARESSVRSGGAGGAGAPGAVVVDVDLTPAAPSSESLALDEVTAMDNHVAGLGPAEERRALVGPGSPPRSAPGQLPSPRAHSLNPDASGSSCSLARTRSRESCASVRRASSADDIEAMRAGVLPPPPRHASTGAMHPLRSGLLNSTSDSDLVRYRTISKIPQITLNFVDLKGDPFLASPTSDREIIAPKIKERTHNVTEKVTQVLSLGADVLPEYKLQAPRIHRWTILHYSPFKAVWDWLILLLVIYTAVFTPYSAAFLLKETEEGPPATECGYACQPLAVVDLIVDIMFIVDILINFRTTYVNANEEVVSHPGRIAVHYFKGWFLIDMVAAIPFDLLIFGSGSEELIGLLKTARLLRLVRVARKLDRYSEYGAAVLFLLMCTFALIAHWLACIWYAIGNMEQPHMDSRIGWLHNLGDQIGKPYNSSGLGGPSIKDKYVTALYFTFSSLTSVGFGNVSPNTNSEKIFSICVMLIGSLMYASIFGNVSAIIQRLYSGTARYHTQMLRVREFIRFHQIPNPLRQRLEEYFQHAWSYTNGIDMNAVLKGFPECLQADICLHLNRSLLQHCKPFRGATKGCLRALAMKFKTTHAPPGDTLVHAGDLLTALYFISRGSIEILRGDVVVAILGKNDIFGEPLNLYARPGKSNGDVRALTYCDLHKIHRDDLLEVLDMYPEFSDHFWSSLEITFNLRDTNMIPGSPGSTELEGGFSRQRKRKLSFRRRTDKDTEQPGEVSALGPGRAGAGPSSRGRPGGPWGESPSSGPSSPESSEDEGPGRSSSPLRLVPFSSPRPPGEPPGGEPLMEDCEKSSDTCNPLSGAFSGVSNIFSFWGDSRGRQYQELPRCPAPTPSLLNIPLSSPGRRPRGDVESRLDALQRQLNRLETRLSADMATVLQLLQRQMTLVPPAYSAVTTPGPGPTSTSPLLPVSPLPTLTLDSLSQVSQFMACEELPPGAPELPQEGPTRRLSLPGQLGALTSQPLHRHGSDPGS
Turning to `O=C(CC1SC(=Nc2ccccc2)N(CCc2c[nH]c3ccccc23)C1=O)Nc1ccccc1F` (stereo not shown), the “hERG current change (%, negative = inhibition) at 1uM” value was 11.2%.
With `CCOc1ccccc1N1CCN(CC(O)COCc2cccs2)CC1` (stereo not shown), the “hERG current change (%, negative = inhibition) at 1uM” value is on record as -1.54%.
`CC(=O)c1c(C)[nH]c(C(=O)NCCN2CCC(C)CC2)c1C`: the “hERG current change (%, negative = inhibition) at 1uM” value was found to be 5.87%.
In the case of `O=C(c1ccc([N+](=O)[O-])cc1)N1CCN(Cc2ccccc2)CC1`, the “hERG current change (%, negative = inhibition) at 1uM” value is reported as -28.7%.
Regarding `CCOc1ccc(-c2nnc3ccc(SCC(=O)N4CCCCC4)nn23)cc1`, the “hERG current change (%, negative = inhibition) at 1uM” value was 5.46%.
`CCOC(=O)c1ccc(NC(=O)CSc2nnc(NC(=O)c3ccc(S(=O)(=O)N4CCOCC4)cc3)s2)cc1`: the “hERG current change (%, negative = inhibition) at 1uM” value was 10.5%.
As to `Cc1ccc(OCCCC(=O)Nc2ccc(N3CCOCC3)cc2)cc1`, the “hERG current change (%, negative = inhibition) at 1uM” value is reported as 15.9%.
For `Cc1cc(C)c(C#N)c(Sc2nnnn2-c2ccccc2)n1`, the “hERG current change (%, negative = inhibition) at 1uM” value was 3.98%.
As to `O=C(C1CCN(S(=O)(=O)c2cnc[nH]2)CC1)N1CCc2ccccc2C1`, the “hERG current change (%, negative = inhibition) at 1uM” value amounted to 16.9%.
Take `Cc1cc(NC(=O)CCC(=O)N(Cc2ccco2)C2(C(=O)NC3CCCCC3)CCN(C)CC2)no1`: the “hERG current change (%, negative = inhibition) at 1uM” value turned out to be 5.24%.
`COCCn1c(SCC(=O)NC2CC2)nnc1-c1ccco1`: the “hERG current change (%, negative = inhibition) at 1uM” value was -8.04%.
For `COc1ccc(/C=N/NC(=O)C2C(=O)NCC2c2ccccc2)c(OC)c1` (stereo not shown), the “hERG current change (%, negative = inhibition) at 1uM” value was 16.6%.
As to `OC1(c2cccc(C(F)(F)F)c2)CCN(Cc2nc(-c3cnccn3)no2)CC1`, the “hERG current change (%, negative = inhibition) at 1uM” value is on record as 8.98%.
As for `O=C(NCc1ccccc1Cl)C1CCC(=O)N(CC2CCCCC2)C1` (stereo not shown), the “hERG current change (%, negative = inhibition) at 1uM” value turned out to be 11.1%.
As to `COc1ccc(C2=NN(c3nc(C)cc(C)n3)C(=O)C2)cc1`, the “hERG current change (%, negative = inhibition) at 1uM” value is 4.48%.
As for `CCS(=O)(=O)c1ccc(-c2cccc(NC(=O)c3ccc(Br)o3)c2)nn1`, the “hERG current change (%, negative = inhibition) at 1uM” value was -5.57%.
Regarding `Cc1ccc2nc3ccc(N4CCN(C)CC4)nn3c(=O)c2c1`, the “hERG current change (%, negative = inhibition) at 1uM” value is given as -13.1%.
For `Cc1cc(C)nc(NC(=NCCc2c[nH]c3ccccc23)NC(=O)Nc2ccccc2)n1`, the “hERG current change (%, negative = inhibition) at 1uM” value is 9.46%.
As to `CCn1ccnc1[C@@H]1C[C@H]2CN(Cc3cccc(Cl)c3)C(=O)[C@]23CCCN13`, the “hERG current change (%, negative = inhibition) at 1uM” value was -5.37%.
In the case of `CCOC(=O)C1=C(C)Nc2nnnn2C1c1ccc(OC)c(Br)c1` (stereo not shown), the “hERG current change (%, negative = inhibition) at 1uM” value was 6.07%.
Take `CCOc1ccc(N2C(=O)/C(=C/c3ccc(C)o3)C(=O)NC2=S)cc1`: the “hERG current change (%, negative = inhibition) at 1uM” value was found to be 15.3%.
Turning to `Fc1ccc(-n2nnc(-c3ccnc4ccccc34)n2)cc1`, the “hERG current change (%, negative = inhibition) at 1uM” value worked out at 4.08%.
As for `CC(=O)Nc1ccc(-c2nnc(SCc3ccccc3C#N)n2C)cc1`, the “hERG current change (%, negative = inhibition) at 1uM” value is reported as -5.5%.
As for `Cc1cc(C)nc(NC(=O)CCN2C(=O)c3ccccc3S2(=O)=O)n1`, the “hERG current change (%, negative = inhibition) at 1uM” value came out at 5.72%.
Next, `Brc1ccc(-c2nc(-c3ccncc3)no2)cc1`: 13.9%.
Turning to `COc1cc(OC)cc(C(=O)OCCCOC(=O)c2cc(OC)cc(OC)c2)c1`, the “hERG current change (%, negative = inhibition) at 1uM” value is recorded as 12.7%.
As to `CN1CCN(/N=C/c2c[nH]c3ccccc23)CC1`, the “hERG current change (%, negative = inhibition) at 1uM” value came out at 13.3%.
For `NC(=O)N/N=C/CCc1ccccc1`, the “hERG current change (%, negative = inhibition) at 1uM” value was 9.92%.
Consider `CC(C)C(NC(=O)c1ccco1)C(=O)OCC(=O)c1ccccc1` (stereo not shown), for which the “hERG current change (%, negative = inhibition) at 1uM” value is 13.9%.
For `Cc1cc(C)nc(NS(=O)(=O)c2ccc(NC(=S)NC(=O)C3CCCC3)cc2)n1`, the “hERG current change (%, negative = inhibition) at 1uM” value is 4.48%.
Next, `CCN(C(=O)CSc1nc2cc(Cl)ccc2c(=O)n1CC(C)C)C1CCS(=O)(=O)C1` (stereo not shown): 10.7%; `CCOc1ccc2nc(SCC(=O)NCc3ccccc3OC)[nH]c2c1`: 4.31%; `Nc1cc(C(=O)OCC(=O)c2ccc(CC(=O)N3CCOCC3)s2)ccc1Cl`: 14.6%.
Turning to `Cc1cc(C)n(-c2nc3c(c(=O)[nH]c(=O)n3C)n2Cc2ccccc2)n1`, the “hERG current change (%, negative = inhibition) at 1uM” value turned out to be 10.1%.
For `CCOC(=O)N1CCN(C(C)C(=O)c2c[nH]c3ccccc23)CC1` (stereo not shown), the “hERG current change (%, negative = inhibition) at 1uM” value is -0.111%.
Next, `CCc1ccc2[nH]c(=O)c(CN(CCN3CCCC3)C(=O)NC3CCCCC3)cc2c1`: -8.52%.
As for `O=C(c1ccccc1)[C@@H]1[C@@H]2C(=O)N(c3ccc(F)cc3)C(=O)[C@@H]2C2CCCN21` (stereo partly shown), the “hERG current change (%, negative = inhibition) at 1uM” value is given as 9.06%.
For the molecule `CCOC(=O)C1CCCN(C(=S)Nc2ccc(F)cc2)C1` (stereo not shown), the “hERG current change (%, negative = inhibition) at 1uM” value turned out to be 14.7%.
Next, `COc1cccc(C(=O)/C=C/Nc2ccc(S(=O)(=O)Nc3cc(OC)nc(OC)n3)cc2)c1`: 21%.
For `Cc1ccc(CCC(=O)Nc2cc(Cl)ccc2Cl)o1`, the “hERG current change (%, negative = inhibition) at 1uM” value was 7.21%.
In the case of `CCOc1ccccc1NC(=O)COC(=O)CN(C)S(=O)(=O)c1ccc(C)cc1`, the “hERG current change (%, negative = inhibition) at 1uM” value was determined as 2.44%.
Turning to `Cc1ccc(S(=O)(=O)CCC(=O)OCC(=O)NC(C)c2ccc(F)cc2)cc1` (stereo not shown), the “hERG current change (%, negative = inhibition) at 1uM” value came to 8.62%.
With `O=C(Nc1ccccc1N1CCCC1)c1cc(Cl)ccc1Cl`, the “hERG current change (%, negative = inhibition) at 1uM” value worked out at 8.76%.
